Source: paper PMC4336329 (PLoS ONE, 2015)
Among all 310,000 compounds or so, about 2,200 (0.71%) showed an effect of 50% or more. Effects have a minus sign here. The list shows a part of the results.

The molecules below were run against human ether-à-go-go-related gene (hERG) potassium channel (human, UniProt Q12809) (assay: primary screen, population patch clamp on CHO cells stably expressing hERG).
Sequence of human ether-à-go-go-related gene (hERG) potassium channel (Q12809 whole entry, looked up): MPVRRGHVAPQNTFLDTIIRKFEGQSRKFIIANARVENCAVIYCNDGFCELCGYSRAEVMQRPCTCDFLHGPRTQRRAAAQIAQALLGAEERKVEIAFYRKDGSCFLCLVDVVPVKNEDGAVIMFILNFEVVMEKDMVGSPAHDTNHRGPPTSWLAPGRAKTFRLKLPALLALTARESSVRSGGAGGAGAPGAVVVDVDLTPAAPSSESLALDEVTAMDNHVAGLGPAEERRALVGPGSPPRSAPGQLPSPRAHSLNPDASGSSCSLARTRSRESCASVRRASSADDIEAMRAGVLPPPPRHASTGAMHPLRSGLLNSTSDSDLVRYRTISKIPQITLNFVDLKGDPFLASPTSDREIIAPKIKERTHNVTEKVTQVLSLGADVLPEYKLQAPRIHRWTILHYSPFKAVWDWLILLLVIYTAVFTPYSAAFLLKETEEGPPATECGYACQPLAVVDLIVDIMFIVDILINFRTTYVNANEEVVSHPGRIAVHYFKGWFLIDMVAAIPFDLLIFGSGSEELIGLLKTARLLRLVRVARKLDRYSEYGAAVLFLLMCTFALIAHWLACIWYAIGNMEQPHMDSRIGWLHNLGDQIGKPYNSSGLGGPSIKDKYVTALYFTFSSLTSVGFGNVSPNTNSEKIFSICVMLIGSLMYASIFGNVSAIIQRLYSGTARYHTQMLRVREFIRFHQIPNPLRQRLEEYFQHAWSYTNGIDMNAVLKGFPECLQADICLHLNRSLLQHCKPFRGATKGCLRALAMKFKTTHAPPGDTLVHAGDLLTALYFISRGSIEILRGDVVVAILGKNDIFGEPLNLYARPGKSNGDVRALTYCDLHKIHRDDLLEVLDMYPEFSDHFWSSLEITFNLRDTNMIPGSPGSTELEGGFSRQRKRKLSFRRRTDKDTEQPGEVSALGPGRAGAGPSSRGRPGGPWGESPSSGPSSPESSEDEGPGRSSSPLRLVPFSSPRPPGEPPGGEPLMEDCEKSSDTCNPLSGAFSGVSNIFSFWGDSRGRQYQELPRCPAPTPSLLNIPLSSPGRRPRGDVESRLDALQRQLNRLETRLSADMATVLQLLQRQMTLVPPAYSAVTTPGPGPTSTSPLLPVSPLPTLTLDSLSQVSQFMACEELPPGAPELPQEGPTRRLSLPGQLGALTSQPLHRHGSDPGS

SMILES	hERG current change (%, negative = inhibition) at 1uM
Cc1ccccc1OCCCN1C(=O)C(=O)c2cccc(C)c21	5.87%
CCOc1ccc(NC(=O)c2c[nH]n3c(=O)cc(C4CCN(C(=O)OC(C)(C)C)CC4)nc23)cc1	11.7%
COc1ccc(NC(=O)CSc2nnc(Cn3cnc([N+](=O)[O-])n3)n2C)cc1	12.5%
CC(Cc1nnc(N)s1)c1ccccc1 (stereo not drawn)	7.94%
COCC(C)n1c(SC(C)C(=O)NC2CCCCC2C)nc2ccccc2c1=O (stereo not drawn)	12.1%
Cc1ccc(Cn2nc(C)c3cc(C(=O)OCC(N)=O)sc32)cc1	8.46%
O=C(NC1CCCCC1)c1ccccc1C(F)(F)F	7.56%
CC(=O)c1ccc(NC(=O)CCc2nnc3ccc(N4CCCC4)nn23)cc1	10.8%
CC(C)CC(=O)Nc1nnc(SCC(=O)Nc2ccc3c(c2)OCO3)s1	7.25%
CCOC(=O)C1CCCN(S(=O)(=O)c2cccs2)C1 (stereo not drawn)	12.7%
COc1cc(NC(=S)Nc2ccc(Br)cc2Cl)c(OC)cc1Cl	4.84%
c1cn(CCCNc2ncnc3sc4c(c23)CCC4)cn1	0.846%
CCn1c(=S)sc2c(=O)n(CC(=O)NCCCc3ccccc3)c(C)nc21	12.4%
Cc1ccc(S(=O)(=O)N2CCN(C(=O)COC(=O)c3cccc(Cl)c3)CC2)c(C)c1	17.3%
CCC1CCCCN1C(=O)COc1ccc2c(c1)OCO2 (stereo not drawn)	13.6%
COCCCNC(=S)Nc1ccc(CC(=O)O)cc1	11.7%
O=C(CCC(=O)Nc1ccccc1Cl)N/N=C1\CCCc2ccccc21	20.4%
Cc1ccc(-c2cc(C(=O)Nc3ccc(S(=O)(=O)Nc4nc(C)cc(C)n4)cc3)c3ccccc3n2)cc1	2.93%
CCN1C(C)=C(C)S/C1=C1\SC(=S)N(C2CCCCC2)C1=O	9.55%
COc1cccc(CNCc2cccc(Br)c2)c1OC.O=C(O)C(=O)O	8.57%
CC(C)CC(=O)Nc1ccnn1C1CCN(C(=O)c2ccc(Cl)cc2F)CC1	-6.67%
CC(C)c1ccc(CN2CCN(S(=O)(=O)c3ccc(Cl)s3)CC2)cc1	7.97%
Cc1c(NC(=S)NCc2ccc(F)cc2)cccc1[N+](=O)[O-]	12.8%

SMILES	hERG current change (%, negative = inhibition) at 1uM
COc1ccccc1OCC(=O)Nc1ccc2c(c1)OCCO2	10.8%
COc1ccc(Br)cc1CN(C)C(=O)CNC(=O)c1ccc2ccccc2c1	9.28%
O=C(NC(=S)N1CCCC1)c1ccccc1F	0.177%
CCNC(=O)NC(C(=O)OC)C12CC3CC(CC(C3)C1)C2 (stereo not drawn)	8.32%
CC(C)(C)C(=O)NC(NC(=S)Nc1ccc(S(N)(=O)=O)cc1)C(Cl)(Cl)Cl (stereo not drawn)	7.63%
CC(C)(C)C1COc2ccccc2N1C(=O)c1ccccc1Cl (stereo not drawn)	13.1%
O=C(NCc1cccs1)C1CC(c2ccc(Cl)cc2)=NO1 (stereo not drawn)	12.8%
O=C(COC(=O)CN1C(=O)NC2(CCCC2)C1=O)Nc1c(Cl)cccc1C(F)(F)F	9.1%
CCOC(=O)NC(Nc1ccc(C)cn1)(C(F)(F)F)C(F)(F)F	11%
N#Cc1ccccc1NC(=S)Nc1ccc(F)cc1	13.3%
CCCCNC(=O)CO/N=C(\C)c1cc2ccccc2o1	10.8%
C/C(CC(=O)Nc1ccc(Cl)cc1Cl)=N\NC(=O)C(=O)N1CCCC1	8.7%
O=C1CCCCCN1CP(=O)(O)CN1CCCCCC1=O	12.9%
Cc1cc(N2C(=O)Cc3ccccc3C2=O)ccc1C(C)C	6.38%
O=C(Oc1ccccc1-c1nnco1)c1ccc(Cl)cc1	6.05%
COc1ccc(N2CCN(C3CCCN(S(=O)(=O)c4ccccc4)C3)CC2)cc1 (stereo not drawn)	7.26%
Cc1c(CC(=O)O)c(=O)oc2c(C)c(OCc3ccccc3Br)ccc12	8.27%
COc1ccc(C(=O)NC2CCN(C(=O)NC3CCCCC3)CC2)cc1	10.5%
CCOc1ccc(Br)cc1S(=O)(=O)Nc1ccc(C(=O)OC(C)C(=O)N(C)c2ccccc2)cc1 (stereo not drawn)	9.85%
O=c1[nH]c2cccnc2c2ccsc12	11.5%
Nc1sc2c([n+]1CCCS(=O)(=O)[O-])CCCC2	12.5%
CC1CCCCN1C(=O)Cn1nnc(-c2cccnc2)n1 (stereo not drawn)	14.5%
CCOc1cc2c(cc1OCC)C(c1ccccc1)N(c1ccc(C(=O)O)cc1)C(=O)C2 (stereo not drawn)	7.71%

SMILES	hERG current change (%, negative = inhibition) at 1uM
O=C(Nc1cccc(-c2cccc(F)c2)c1)C1CCN(C2CCOCC2)CC1	-67.8%
O=[N+]([O-])c1cccnc1N1CCN(c2ccc(F)cc2)CC1	-0.886%
CC(C)C(=O)Nc1ccc(S(=O)(=O)N2CCC(c3nc4ccccc4[nH]3)CC2)cc1	12%
CCCCCCC(=O)Nc1nc(C)c(-c2csc(Nc3cc(OC)ccc3OC)n2)s1	9.91%
Cl.c1cc(CNC2C3CC4CC(C3)CC2C4)ccn1 (stereo not drawn)	5.52%
COc1ccccc1CNC(=O)c1cccc(N(C)C)c1	5.63%
Clc1ccc(OCc2nc(-c3ccccn3)n[nH]2)cc1	-8.04%
CCC(=NCCN1CCCCC1)c1c(O)n(C)c(=O)n(C)c1=O	-3.36%
COc1cc(C(=O)NNC(=S)NC(=O)c2ccc(F)cc2)cc(OC)c1OC	10.2%
Cc1cc(C(F)(F)F)nn1CC(=O)Nc1ccc(Br)c2cccnc12	-7.38%
Nc1c([N+](=O)[O-])c(=O)oc2ccccc12	13.2%
COc1cc(C(=O)Nc2ccc(Oc3ncnc4sc(-c5ccccc5)cc34)cc2)cc(OC)c1OC	12.9%
S=C(NCCCN1CCOCC1)N(Cc1ccccc1)Cc1ccccc1	-0.376%
CCN(CC)CCCNC(=O)c1[nH]c2ccccc2c1Sc1ccc(Cl)cc1	-48.1%
Cc1ccc(S(=O)(=O)N2CCN(C(=O)COC(=O)CCOc3cc(C)ccc3C)CC2)cc1	0.786%
O=C(O)Cc1ccc(NS(=O)(=O)c2ccccc2Br)cc1	16.7%
COc1cc(/C=N/NC(N)=S)ccc1OCc1ccc(C)cc1	9.09%
Cc1cccc(C(=O)O[C@@H]2[C@H](Cc3ccccc3)NS(=O)(=O)[C@H]3C[C@@H]4C=C[C@]23O4)c1	14.1%
CCOC(=O)C1=C(C)N(CCCC(=O)O)C(=O)NC1c1ccccc1OS(=O)(=O)c1ccccc1[N+](=O)[O-] (stereo not drawn)	11.5%
CCOC(=O)C(CCCCCOc1ccccc1[N+](=O)[O-])C(=O)OCC	9.84%
COc1cc(Br)c(-c2sc(Nc3ccccc3)n[n+]2-c2ccc(F)cc2)cc1OC.[Cl-]	7.75%
Cc1ccc(C)c(-c2csc(NC(=O)C3=COCCO3)n2)c1	5.02%
CCOC(=O)c1c2n(c3ccc(O)cc13)CCC2	16.1%

SMILES	hERG current change (%, negative = inhibition) at 1uM
Cc1cccc(NC(=S)NC2CCCC2)c1C	2.03%
N=C(N)Cc1ccccc1Sc1ccccc1.O=C(O)/C=C\C(=O)O	5.87%
CC(C)n1cc(/C=N/Nc2ccc(Cl)c(C(=O)O)c2)c2ccccc21	18.9%
O=C(CSc1nncc2ccccc12)Nc1ccccc1	8.55%
CC(C)CN(C(=O)COC(=O)c1ccc(Br)cc1)c1c(N)n(Cc2ccccc2)c(=O)[nH]c1=O	-0.63%
CC(=O)N1CCN(c2ccc(NC(=O)c3cccc(Cl)c3)cc2)CC1	0.608%
COc1ccc(C(=O)NCC(=O)N/N=C/c2ccc([N+](=O)[O-])o2)cc1OC	1.92%
Cc1cc(=O)[nH]c(=S)[nH]1	13.7%
OCCN(CCO)Cc1ccc(Br)cc1	9.17%
COc1ccc(/C=C2/SC(=O)N(CCNC(=O)CC(NC(C)=O)c3ccccc3)C2=O)cc1 (stereo not drawn)	8.73%
CC(C)c1cc(C(N)=O)c(NC(=O)c2cccc(COc3ccc(Cl)cc3)c2)s1	11.6%
CCCNC(=O)c1cccc(C(F)(F)F)c1	10.3%
CCOCCCNC(=O)c1ccc(OC)cc1	19.5%
O=C(c1ccc(S(=O)(=O)Nc2ccccc2)cc1)N1CCCC(C(F)(F)F)C1 (stereo not drawn)	9.22%
COc1ccc(NC(=O)CCC(=O)N/N=C/c2cn(C)nc2C)cc1	10.4%
Br.Cc1ccccc1Cn1ccc(=NCc2ccccc2)cc1	9.1%
O=C(CSc1ccccn1)Nc1ccc(Br)cn1	2.27%
CC(c1ccccn1)N(CCN(C)C)C(=S)Nc1ccccc1F (stereo not drawn)	-2.6%
CCOC(=O)N1CCN(S(=O)(=O)c2cc(OCC(=O)NC3CCCCC3)c(C)cc2Cl)CC1	-13.5%
COc1cccc(N(C(=O)c2snc(C(N)=O)c2N)C(C(=O)NCC2CCCO2)c2c[nH]c3ccccc23)c1 (stereo not drawn)	1.83%
c1ccc(-c2csc(N3CCSCC3)n2)cc1	17.2%
